We go through seven molecules from the supplement of paper PMC11383711.

B1: antibody 3F05 (protein)
chain 1: VQLVESGGGVVQPGRSLRLSCAASGFTFMSYNIHWFRQAPGKDLQWVAVVWYEGSTKFYGDSVKGRLTISRDNSKDMVYLQMNNLRAEDTAIYYCAREAVSPGPDDIYFGMDVWGHGTTVTVSS
chain 2: EIVLTQSPATLSLSPGERATLSCRASQSVGSYLAWYQQKPGQAPRLLIYDVSNRATGIPARFIGSGSGTDFTLTISSLEPEDSAVYYCQQRSNWPPGVTFGPGTKVDIK
B2: R95-2A04 (protein)
chain 1: QVQLEQSGAEVKKPGASMKVSCKTSGYSFNAYFIHWVRQAPGQGLEWMGRINPTSGGTDYAQRFQDRVTMTRDTSINTAYMELSRLKSDDSALYYCTRALYYDSIAYYFDYWGRGTLVTVSS
chain 2: SYELTQPPSVSVSPGQTASITCSGDELGKKYACWYQQKPGQSPAMVIYGDNKRPSGIPERFSGSNSGDTATLTISGTQAVDEAGYYCQTWDSRTAVFGTGTKV
B3: W85-2B12 (protein)
chain 1: EVQLVESGGGVVQPGRSLRLSCAVSGFTFSSFAMHWVRQAPGKGLEWMAVISYNGINKDYADSVKGRFTISRDNSKNTLYLQVSSLRPEDTAVYYCASGQRQFDYFPDGDYYYFDSWGQGTLVTVSS
chain 2: QSALTQPASVSGSPGQSITISCTGTSSDVGGYNYVSWYQQHPGKAPKLMIYEVNNRPSGVSNRFSGSKSGNTASLTISGLRAEDEADYYCSSYTSTSPLVFGGGTKLTVL
B4: 56.j.01 (protein)
chain 1: QVQLVQSGAEMKKPGASVKVSCKASGYTFTNYYIHWMRQAPAQGLEWMGIINPSDDSTTYAQRFQGRVTMTSDTSTSTVYMELSSLRSEDTAVYYCAKLGYWTDDYWGQGTLVTVSS
chain 2: DIQMTQSPSSLSASVGDRVTITCRASQGIGNYLAWYQQKPGKVPKLLIFAASTLQSGVPSRFSGSGSGTDFTLTISSLQPEDVATYYCQIFNSALGPLTFGGGTKVEI
B5: antibody 2F01 (protein)
chain 1: ESGGGLIQPGGSLRLSCVASGFTINSFAMSWVRQAPGKGLQWVSSVNEQATYYAESVEGRFTISRDRSRNTLFLQMNYLRVEDTATYYCANDVDGDAGTWFESWGQGALVTVSS
chain 2: EIVMTQSPDTLSVSPGERATLFCRASQNVKSNLTWYQQRPGQPPRLLIFGASTRATGVPARFSGSGSGTEFTLSISSLQSEDSAIYSCQQYNDWPPTFGQGTKVEIK
B6: R95-2E02 (protein)
chain 1: EVQLVESGGGLIQPGGSLRLSCTASGFTFHDHAMHWVRQPPGKGLEWVSGISWNGGDMKYGGSVKGRFITSRDNGKKSLYLQMNSLRPEDTAVYYCAKEISVRYYDFWSGYLGKPRGMDVWGQGTTVTVSS
chain 2: QSVLTQPPAASGTPGQTVNITCSGSPSNIGSETVNWYQRLPGTAPKLLIYSSNQRPSGVPDRFSGSKYGTSASLVISGLQSEDEGDYYCAVWDESRNGFYVFGTGTKVTVL
B7: antibody 2B03 (protein)
chain 1: QVQLQESGPGLVKPSQTLSLTCTVSGASVGSGTYYWTWIRQRPGTGLEWIGYIYDSGTTYYNPSLRSRLIISSDTSTNHFSLNLKSVTAADTAVYYCARVGHGDYVGYLDYWGQGILVTVSS
chain 2: SYELTQPLSVSVALGQTARITCGGSNIGSKNVHWYQQKPGQAPILAIYRDNNRPSGIPERFSGSNSGNTATLIISRAQAGDEADYYCQVWDTSIAVVFGGGTKLTVL

The list shows a part of the results. Binding of human antibodies (heavy:light variable regions, tested as scFv in one mRNA-display pool) to influenza hemagglutinin, with or without the stem antibody CR9114 bound first. Score = (mean enrichment − median) / interquartile range of that screen; higher = more enriched, 0 = typical non-binder. Active = above the paper's cut-off per screen: stems 28; unblocked H1 Solomon Islands 5, H1 Michigan 3, H3 5, H5 19, H7 2.85, both B 5; blocked 9, 7, H5 10, H7 10, B Phuket 10, B Lee 11.5. Scores are scaled within each screen and are no affinities; replicates correlate at about 0.6 to 0.9, and antibodies rare in the pool are noisier.

One assay concerns the target Influenza A H1N1 A/Michigan/45/2015 hemagglutinin ectodomain. Nature of the assay: mRNA display binding score; higher = more enriched on the antigen. To be noted: antigen blocked with: 2 µM CR9114 IgG. The method, then:
(§1)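 A pool of natively paired antibodies, displayed as scFv on mRNA, was selected once on antigen-coated beads and sequenced before and after; two replicates.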
Take B1: the “mRNA display binding score” value was inactive: 1.52.

Consider B2, for which the “mRNA display binding score” value is inactive: -0.00823.

Take B3: the “mRNA display binding score” value is inactive: -0.0148.

In the case of B4, the “mRNA display binding score” value is inactive: 0.378.

Take B5: the “mRNA display binding score” value was inactive: 0.55.

Consider B6, for which the “mRNA display binding score” value was inactive: -0.301.

For B7, the “mRNA display binding score” value is active: 34.9.

Staying with this assay, now noted: antigen blocked with: nothing.
Take B1: the “mRNA display binding score” value is inactive: 0.444.

B2: the “mRNA display binding score” value is inactive: -0.0146.

With B3, the “mRNA display binding score” value was inactive: 0.119.

In the case of B4, the “mRNA display binding score” value was inactive: 0.254.

Turning to B5, the “mRNA display binding score” value is inactive: 1.61.

B6: the “mRNA display binding score” value was inactive: -0.337.

Consider B7, for which the “mRNA display binding score” value is inactive: 2.9.

In a further assay the target is Influenza A H1N1 A/Solomon Islands/3/2006 hemagglutinin ectodomain. Described as above. To be noted: antigen blocked with: 2 µM CR9114 IgG. The procedure:
as §1
For B1, the “mRNA display binding score” value was inactive: 0.713.

B2: the “mRNA display binding score” value is inactive: -0.44.

For the molecule B3, the “mRNA display binding score” value is inactive: 0.0597.

Regarding B4, the “mRNA display binding score” value was inactive: 0.365.

Consider B5, for which the “mRNA display binding score” value is inactive: 0.428.

On to B6, for which the “mRNA display binding score” value is inactive: -0.598.

For the molecule B7, the “mRNA display binding score” value was inactive: 0.354.

Still in this assay, the particulars now being: antigen blocked with: nothing.
Turning to B1, the “mRNA display binding score” value was inactive: 0.189.

For the molecule B2, the “mRNA display binding score” value was inactive: -0.245.

As for B3, the “mRNA display binding score” value is inactive: 0.103.

B4: the “mRNA display binding score” value was inactive: 0.513.

For the molecule B5, the “mRNA display binding score” value is inactive: 0.645.

Turning to B6, the “mRNA display binding score” value was inactive: -0.234.

For B7, the “mRNA display binding score” value was inactive: 0.242.

The next assay addresses Influenza A H3N2 A/Singapore/INFIMH-16-0019/2016 hemagglutinin ectodomain. The assay is described as above. The note with it: antigen blocked with: nothing. The procedure: as §1
Consider B1, for which the “mRNA display binding score” value is inactive: -0.016.

For the molecule B2, the “mRNA display binding score” value was inactive: 0.432.

Turning to B3, the “mRNA display binding score” value is inactive: -0.166.

With B4, the “mRNA display binding score” value is active: 9.95.

As to B5, the “mRNA display binding score” value is inactive: 0.909.

Take B6: the “mRNA display binding score” value is inactive: -0.111.

On to B7, for which the “mRNA display binding score” value is inactive: 0.487.

The target of another assay is Influenza A H5N1 A/Qinghai/1A/2005 hemagglutinin ectodomain. The description is as above. The note with it: antigen blocked with: 2 µM CR9114 IgG. The method, then:
as §1
Regarding B1, the “mRNA display binding score” value was inactive: 0.434.

In the case of B2, the “mRNA display binding score” value was inactive: 0.302.

For B3, the “mRNA display binding score” value is inactive: 0.107.

In the case of B4, the “mRNA display binding score” value was inactive: 0.421.

For B5, the “mRNA display binding score” value was inactive: 0.169.

As for B6, the “mRNA display binding score” value is inactive: -0.57.

Turning to B7, the “mRNA display binding score” value was inactive: 0.36.

Still in this assay, the particulars now being: antigen blocked with: nothing.
Consider B1, for which the “mRNA display binding score” value is inactive: -0.141.

For B2, the “mRNA display binding score” value is inactive: 0.883.

B3: the “mRNA display binding score” value was inactive: 0.0244.

Consider B4, for which the “mRNA display binding score” value was inactive: 0.

As to B5, the “mRNA display binding score” value is inactive: 0.405.

Consider B6, for which the “mRNA display binding score” value was inactive: -0.0991.

On to B7, for which the “mRNA display binding score” value is inactive: 0.419.

A further assay addresses Influenza A H7N9 A/Shanghai/2/2013 hemagglutinin ectodomain. Described as above. To be noted: antigen blocked with: 2 µM CR9114 IgG. The method, then: as §1
As to B1, the “mRNA display binding score” value was inactive: 0.872.

On to B2, for which the “mRNA display binding score” value is inactive: -0.278.

With B3, the “mRNA display binding score” value was inactive: -0.153.

For B4, the “mRNA display binding score” value was inactive: 0.546.

Consider B5, for which the “mRNA display binding score” value is inactive: 0.454.

In the case of B6, the “mRNA display binding score” value is inactive: -0.708.

In the case of B7, the “mRNA display binding score” value is inactive: 0.113.

The same assay, now with this note: antigen blocked with: nothing.
Regarding B1, the “mRNA display binding score” value was inactive: 0.452.

Consider B2, for which the “mRNA display binding score” value was inactive: 0.0336.

Regarding B3, the “mRNA display binding score” value was inactive: 0.232.

With B4, the “mRNA display binding score” value is inactive: 0.532.

In the case of B5, the “mRNA display binding score” value was inactive: 2.73.

Consider B6, for which the “mRNA display binding score” value is inactive: -0.383.

With B7, the “mRNA display binding score” value was inactive: 1.29.

Another assay deals with Influenza B/Lee/1940 hemagglutinin ectodomain. The description is as above. To be noted: antigen blocked with: 2 µM CR9114 IgG. The method, then: as §1
As to B1, the “mRNA display binding score” value was inactive: -0.12.

For the molecule B2, the “mRNA display binding score” value is inactive: -0.24.

Turning to B3, the “mRNA display binding score” value is inactive: -0.37.

On to B4, for which the “mRNA display binding score” value was inactive: -0.264.

Consider B5, for which the “mRNA display binding score” value is inactive: -0.442.

For B6, the “mRNA display binding score” value was inactive: -0.136.

B7: the “mRNA display binding score” value is inactive: -0.641.

Staying with this assay, now noted: antigen blocked with: nothing.
For B1, the “mRNA display binding score” value was inactive: 0.0697.

Take B2: the “mRNA display binding score” value is active: 10.8.

Consider B3, for which the “mRNA display binding score” value is inactive: -0.115.

As to B4, the “mRNA display binding score” value was inactive: -0.0789.

With B5, the “mRNA display binding score” value was inactive: 0.139.

B6: the “mRNA display binding score” value is inactive: -0.416.

Take B7: the “mRNA display binding score” value is inactive: 0.172.

In the next assay the target is Influenza B/Phuket/3073/2013 hemagglutinin ectodomain. The assay is described as above. To be noted: antigen blocked with: 2 µM CR9114 IgG. The procedure: as §1
Take B1: the “mRNA display binding score” value was inactive: 0.0956.

For the molecule B2, the “mRNA display binding score” value is inactive: 1.96.

Consider B3, for which the “mRNA display binding score” value is inactive: 0.034.

For B4, the “mRNA display binding score” value is inactive: 0.548.

Turning to B5, the “mRNA display binding score” value was inactive: 0.214.

Turning to B6, the “mRNA display binding score” value is inactive: -0.547.

Take B7: the “mRNA display binding score” value is inactive: 0.198.

Staying with this assay, now noted: antigen blocked with: nothing.
With B1, the “mRNA display binding score” value was inactive: -0.0301.

Regarding B2, the “mRNA display binding score” value was active: 6.09.

Take B3: the “mRNA display binding score” value is inactive: -0.104.

With B4, the “mRNA display binding score” value is inactive: 0.17.

For B5, the “mRNA display binding score” value is inactive: 0.297.

Regarding B6, the “mRNA display binding score” value was inactive: -0.336.

For the molecule B7, the “mRNA display binding score” value is inactive: -0.0136.
